We go through 9 molecules from PMC9911399, “Two distinct binding modes provide the RNA-binding protein RbFox with extraordinary sequence specificity”.

T1: RBFOX1 RRM (Homo sapiens, UniProt Q9NWB1 109-208)
T1 sequence: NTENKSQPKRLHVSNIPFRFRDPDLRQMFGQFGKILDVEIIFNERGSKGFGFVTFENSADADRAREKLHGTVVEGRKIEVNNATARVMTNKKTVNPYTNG

B1: GUAGGAA (DNA:RNA)
RNA: GGGAGACCGGAAUUCAGAUUGUCCGUAGGAAUUAAAUCCCGUCGUAGCCACCA
DNA 1: CAATCTGAATTCCGGTCTCCC
DNA 2: TGGTGGCTACGACGGGATT
B2: CACUCUU (DNA:RNA)
RNA: GGGAGACCGGAAUUCAGAUUGUCCCACUCUUUUAAAUCCCGUCGUAGCCACCA
DNA 1: CAATCTGAATTCCGGTCTCCC
DNA 2: TGGTGGCTACGACGGGATT
B3: CAGAUUC (DNA:RNA)
RNA: B2 RNA with C27G, U28A, C29U, U31C
DNA 1: CAATCTGAATTCCGGTCTCCC
DNA 2: TGGTGGCTACGACGGGATT
B4: GACUACC (DNA:RNA)
RNA: B2 RNA with C25G, C29A, U30C, U31C
DNA 1: CAATCTGAATTCCGGTCTCCC
DNA 2: TGGTGGCTACGACGGGATT
B5: CCGCCGC (DNA:RNA)
RNA: B2 RNA with A26C, C27G, U28C, U30G, U31C
DNA 1: CAATCTGAATTCCGGTCTCCC
DNA 2: TGGTGGCTACGACGGGATT
B6: AGGGCGC (DNA:RNA)
RNA: B2 RNA with C25A, A26G, C27G, U28G, U30G, U31C
DNA 1: CAATCTGAATTCCGGTCTCCC
DNA 2: TGGTGGCTACGACGGGATT
B7: UCUAUUU (DNA:RNA)
RNA: B2 RNA with C25U, A26C, C27U, U28A, C29U
DNA 1: CAATCTGAATTCCGGTCTCCC
DNA 2: TGGTGGCTACGACGGGATT
B8: CACUCAG (DNA:RNA)
RNA: B2 RNA with U30A, U31G
DNA 1: CAATCTGAATTCCGGTCTCCC
DNA 2: TGGTGGCTACGACGGGATT
B9: AACUAGA (DNA:RNA)
RNA: B2 RNA with C25A, C29A, U30G, U31A
DNA 1: CAATCTGAATTCCGGTCTCCC
DNA 2: TGGTGGCTACGACGGGATT

Where a chain is given by its changes, count along the chain named. Some of the results follow.

The test concerns the target T1, RBFOX1 RRM. The test is described as follows: EMSA; HiTS-Eq, 1 nM pool, 10 min; buffer printed only for the single-RNA assays: 10 mM Tris pH 7.5, 150 mM NaCl, 3.4 mM EDTA, 0.001% NP-40, 30 C. Particulars: tags: His6 N-terminal (pET28a); label: 5' 32P. In a few lines:
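Purified wild-type or mutant RbFox RRM at increasing concentrations was equilibrated with 1 nM of 5′-radiolabelled RNA carrying 7 randomized nucleotides for 10 min in 50 µL. Unbound RNA was separated by 8% native PAGE and sequenced. Relative association constants came from read-count changes of each RNA species compared with the control reaction, normalised to the cognate motif.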
For B1, the binding signal was 0.00484 KA relative to UGCAUGU.
On to B2, for which the binding signal is 0.00351 KA relative to UGCAUGU.
The value for B3 was 0.00642 KA relative to UGCAUGU; that for B4 was 0.00582 KA relative to UGCAUGU.
Take B5: the binding signal was 0.00251 KA relative to UGCAUGU.
The figure for B6 is 0.0254 KA relative to UGCAUGU.
The figure for B7 is 0.00867 KA relative to UGCAUGU; for B8 it is 0.00533 KA relative to UGCAUGU.
The figure for B9 is 0.00203 KA relative to UGCAUGU.
